From the supplement of paper PMC4604168 (melanoma cell lines)
The other results are listed elsewhere or left out. Repeats are few or missing, and single values can be far off.

These molecules were tested on SkMel28 (assay: cell count relative to DMSO control; melanoma cells; higher = more viable cells). Conditions: library dose: standard library concentration; 72 h.
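Further: cells treated in 1,536-well plates, then fixed and DAPI-stained, with nuclei counted from automated high-throughput microscope images.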

Row | SMILES | cell count [%]
1 | Cn1cnc2c(F)c(Nc3ccc(Br)cc3Cl)c(C(=O)NOCCO)cc21 [selumetinib] + Cc1cc([N+](=O)[O-])ccc1NS(=O)(=O)c1cc(Cl)ccc1Cl [FH535] (first compound 0.075 µM, partner dose 5 µM) | 55.7
2 | Cn1cnc2c(F)c(Nc3ccc(Br)cc3Cl)c(C(=O)NOCCO)cc21 [selumetinib] + COc1cc2ncnc(Nc3ccc(Oc4ccccc4)cc3)c2cc1OC [SrcI1] (first compound 0.075 µM, partner dose 10 µM) | 43.6
3 | C[C@]1(O)C[C@@H](c2nc(-c3ccc4ccc(-c5ccccc5)nc4c3)c3c(N)nccn32)C1 + CCc1ccc(CCOc2ccc(CC3SC(=O)NC3=O)cc2)nc1 [pioglitazone] (first compound 2 µM, partner dose 10 µM) | 66.3
4 | CCN(CC)CCNC(=O)c1c(C)[nH]c(/C=C2\C(=O)Nc3ccc(F)cc32)c1C [sunitinib] + O=S(=O)(c1ccccc1)N(CC(F)(F)F)c1ccc(C(O)(C(F)(F)F)C(F)(F)F)cc1 [T0901317] (first compound 2 µM, partner dose 7 µM) | 64.6
5 | Cn1cnc2c(F)c(Nc3ccc(Br)cc3Cl)c(C(=O)NOCCO)cc21 [selumetinib] + Oc1cc(-c2nc(-c3ccccc3)[nH]c2-c2ccncc2)ccc1Cl [L779450] (first compound 0.075 µM, partner dose 1 µM) | 25.4
6 | C[C@]1(O)C[C@@H](c2nc(-c3ccc4ccc(-c5ccccc5)nc4c3)c3c(N)nccn32)C1 + N#Cc1c(O)c2c(-c3ccc(-c4ccccc4O)cc3)csc2[nH]c1=O [A769662] (first compound 2 µM, partner dose 10 µM) | 90.9
7 | COc1cc([C@@H]2c3cc4c(cc3[C@@H](O[C@@H]3O[C@@H]5CO[C@@H](C)O[C@H]5[C@H](O)[C@H]3O)[C@H]3COC(=O)[C@H]23)OCO4)cc(OC)c1O [etoposide] + N#Cc1c(O)c2c(-c3ccc(-c4ccccc4O)cc3)csc2[nH]c1=O [A769662] (first compound 0.1 µM, partner dose 10 µM) | 93.4
8 | CCN(CC)CCNC(=O)c1c(C)[nH]c(/C=C2\C(=O)Nc3ccc(F)cc32)c1C [sunitinib] + COc1ccc(-c2ccc3c(N4CCOCC4)nc(N4C[C@@H](C)O[C@@H](C)C4)nc3n2)cc1CO [KU0063794] (first compound 2 µM, partner dose 0.1 µM) | 57.5
9 | CCN(CC)CCNC(=O)c1c(C)[nH]c(/C=C2\C(=O)Nc3ccc(F)cc32)c1C [sunitinib] + N#Cc1c(O)c2c(-c3ccc(-c4ccccc4O)cc3)csc2[nH]c1=O [A769662] (first compound 2 µM, partner dose 10 µM) | 67.5
10 | Cn1cnc2c(F)c(Nc3ccc(Br)cc3Cl)c(C(=O)NOCCO)cc21 [selumetinib] + CCc1ccc(CCOc2ccc(CC3SC(=O)NC3=O)cc2)nc1 [pioglitazone] (first compound 0.075 µM, partner dose 10 µM) | 52.8
11 | C[C@]1(O)C[C@@H](c2nc(-c3ccc4ccc(-c5ccccc5)nc4c3)c3c(N)nccn32)C1 + COc1ccc(-c2ccc3c(N4CCOCC4)nc(N4C[C@@H](C)O[C@@H](C)C4)nc3n2)cc1CO [KU0063794] (first compound 2 µM, partner dose 0.1 µM) | 77
12 | Cn1cnc2c(F)c(Nc3ccc(Br)cc3Cl)c(C(=O)NOCCO)cc21 [selumetinib] + O=c1cc(-c2cccc3c2Sc2ccccc2S3)oc(N2CCOCC2)c1 [KU55933] (first compound 0.075 µM, partner dose 5 µM) | 45
13 | Cn1cnc2c(F)c(Nc3ccc(Br)cc3Cl)c(C(=O)NOCCO)cc21 [selumetinib] + O=C(Nc1ccccc1)c1cc([N+](=O)[O-])ccc1Cl [GW9662] (first compound 0.075 µM, partner dose 10 µM) | 34.8
14 | COc1cc([C@@H]2c3cc4c(cc3[C@@H](O[C@@H]3O[C@@H]5CO[C@@H](C)O[C@H]5[C@H](O)[C@H]3O)[C@H]3COC(=O)[C@H]23)OCO4)cc(OC)c1O [etoposide] + COc1cc(N2CCC(N3CCN(C)CC3)CC2)ccc1Nc1ncc(Cl)c(Nc2ccccc2S(=O)(=O)C(C)C)n1 [NVP-TAE684] (first compound 0.1 µM, partner dose 0.4 µM) | 81.2
15 | Cn1cnc2c(F)c(Nc3ccc(Br)cc3Cl)c(C(=O)NOCCO)cc21 [selumetinib] + COc1ccc(COc2ccc(Cc3cnc(N)nc3N)cc2OC)cc1 [GW2580] (first compound 0.075 µM, partner dose 5 µM) | 46.4
16 | CCN(CC)CCNC(=O)c1c(C)[nH]c(/C=C2\C(=O)Nc3ccc(F)cc32)c1C [sunitinib] + Oc1cc(-c2nc(-c3ccccc3)[nH]c2-c2ccncc2)ccc1Cl [L779450] (first compound 2 µM, partner dose 1 µM) | 22.4
17 | Cn1cnc2c(F)c(Nc3ccc(Br)cc3Cl)c(C(=O)NOCCO)cc21 [selumetinib] + CCN(CC)CCCCNc1ncc2cc(-c3cc(OC)cc(OC)c3)c(NC(=O)NC(C)(C)C)nc2n1 [PD173074] (first compound 0.075 µM, partner dose 0.5 µM) | 66.1
18 | COc1cc([C@@H]2c3cc4c(cc3[C@@H](O[C@@H]3O[C@@H]5CO[C@@H](C)O[C@H]5[C@H](O)[C@H]3O)[C@H]3COC(=O)[C@H]23)OCO4)cc(OC)c1O [etoposide] + CCCCCCCCCCCC1=C(O)C(=O)C=C(O)C1=O [Embelin] (first compound 0.1 µM, partner dose 6 µM) | 59.5
19 | CCN(CC)CCNC(=O)c1c(C)[nH]c(/C=C2\C(=O)Nc3ccc(F)cc32)c1C [sunitinib] + Cc1cc([N+](=O)[O-])ccc1NS(=O)(=O)c1cc(Cl)ccc1Cl [FH535] (first compound 2 µM, partner dose 5 µM) | 39.8
20 | C[C@]1(O)C[C@@H](c2nc(-c3ccc4ccc(-c5ccccc5)nc4c3)c3c(N)nccn32)C1 + COC(=O)c1sccc1S(=O)(=O)Nc1ccc(Nc2ccccc2)cc1OC [GSK0660] (first compound 2 µM, partner dose 5 µM) | 83.5
21 | COc1cc([C@@H]2c3cc4c(cc3[C@@H](O[C@@H]3O[C@@H]5CO[C@@H](C)O[C@H]5[C@H](O)[C@H]3O)[C@H]3COC(=O)[C@H]23)OCO4)cc(OC)c1O [etoposide] + c1cc(-c2cnn3cc(-c4ccc(OCCN5CCCCC5)cc4)cnc23)ccn1 [Dorsomorphin] (first compound 0.1 µM, partner dose 2 µM) | 60.9
22 | C[C@]1(O)C[C@@H](c2nc(-c3ccc4ccc(-c5ccccc5)nc4c3)c3c(N)nccn32)C1 + CCN(CC)CCCCNc1ncc2cc(-c3cc(OC)cc(OC)c3)c(NC(=O)NC(C)(C)C)nc2n1 [PD173074] (first compound 2 µM, partner dose 0.5 µM) | 79
23 | COc1cc([C@@H]2c3cc4c(cc3[C@@H](O[C@@H]3O[C@@H]5CO[C@@H](C)O[C@H]5[C@H](O)[C@H]3O)[C@H]3COC(=O)[C@H]23)OCO4)cc(OC)c1O [etoposide] + CCN(CC)CCCCNc1ncc2cc(-c3cc(OC)cc(OC)c3)c(NC(=O)NC(C)(C)C)nc2n1 [PD173074] (first compound 0.1 µM, partner dose 0.5 µM) | 89.8
24 | COc1cc([C@@H]2c3cc4c(cc3[C@@H](O[C@@H]3O[C@@H]5CO[C@@H](C)O[C@H]5[C@H](O)[C@H]3O)[C@H]3COC(=O)[C@H]23)OCO4)cc(OC)c1O [etoposide] + O=C(Nc1ccccc1)c1cc([N+](=O)[O-])ccc1Cl [GW9662] (first compound 0.1 µM, partner dose 10 µM) | 41.9
25 | COc1cc([C@@H]2c3cc4c(cc3[C@@H](O[C@@H]3O[C@@H]5CO[C@@H](C)O[C@H]5[C@H](O)[C@H]3O)[C@H]3COC(=O)[C@H]23)OCO4)cc(OC)c1O [etoposide] + COc1ccc2c(c1)CCC1C2CCC2(C)C(NCCCCCCN3C(=O)C=CC3=O)CCC12 [U73122] (first compound 0.1 µM, partner dose 2 µM) | 112
26 | Cn1cnc2c(F)c(Nc3ccc(Br)cc3Cl)c(C(=O)NOCCO)cc21 [selumetinib] + O=C(O)C(=O)Nc1sc2c(c1C(=O)O)CCNC2 [TCS401] (first compound 0.075 µM, partner dose 8.33333 µM) | 47.5
27 | C[C@]1(O)C[C@@H](c2nc(-c3ccc4ccc(-c5ccccc5)nc4c3)c3c(N)nccn32)C1 + Oc1nc(-c2ccc(C(F)(F)F)cc2)nc2c1CSCC2 [XAV939] (first compound 2 µM, partner dose 10 µM) | 72.3
28 | COc1cc([C@@H]2c3cc4c(cc3[C@@H](O[C@@H]3O[C@@H]5CO[C@@H](C)O[C@H]5[C@H](O)[C@H]3O)[C@H]3COC(=O)[C@H]23)OCO4)cc(OC)c1O [etoposide] + Oc1cc(-c2nc(-c3ccccc3)[nH]c2-c2ccncc2)ccc1Cl [L779450] (first compound 0.1 µM, partner dose 1 µM) | 48.1
29 | C[C@]1(O)C[C@@H](c2nc(-c3ccc4ccc(-c5ccccc5)nc4c3)c3c(N)nccn32)C1 + CCCCCCCCCCCC1=C(O)C(=O)C=C(O)C1=O [Embelin] (first compound 2 µM, partner dose 6 µM) | 93.2
